# Hit rate of the full screen: of about 410,000 compounds, about 6,400 (1.6%) were called active. The inconclusive results got no clear call from the source; some entries with a clear call stand among them for comparison. The call rests on the fitted dose curve; in most records, active means well fitted inhibition curve with a large enough effect; inconclusive means small, poorly fitted or top-dose-only effect; inactive means no such curve, though single readings can be large or run the other way. Potencies of inconclusive entries are left out as doubtful fits.
# Molecular target: Glucagon-like peptide 1 receptor (Homo sapiens) (UniProt P43220)
# Sequence of UniProt P43220 (P43220 whole entry, looked up): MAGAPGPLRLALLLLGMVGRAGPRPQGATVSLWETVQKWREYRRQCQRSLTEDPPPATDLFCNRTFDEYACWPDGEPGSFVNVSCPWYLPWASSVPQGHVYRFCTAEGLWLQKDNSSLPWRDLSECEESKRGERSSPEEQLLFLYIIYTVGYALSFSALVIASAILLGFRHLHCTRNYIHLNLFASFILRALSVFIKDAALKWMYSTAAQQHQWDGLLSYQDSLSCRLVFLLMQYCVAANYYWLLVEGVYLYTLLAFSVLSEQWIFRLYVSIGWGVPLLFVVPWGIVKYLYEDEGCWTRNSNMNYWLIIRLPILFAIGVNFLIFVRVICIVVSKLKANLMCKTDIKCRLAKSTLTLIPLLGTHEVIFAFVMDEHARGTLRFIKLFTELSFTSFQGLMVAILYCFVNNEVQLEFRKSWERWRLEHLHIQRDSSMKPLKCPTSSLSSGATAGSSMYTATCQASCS
# Assay: qHTS of GLP-1 Receptor Inverse Agonists (Inhibition Mode); further: nearly all actives have a fitted effect of over 55% in size
# Settings: HEK293 GLP-1R CRE-luciferase, luminescence, 24 h, GLP-1R form is constitutively active; series mostly up to 38.3 µM
# Method in brief: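 HEK293 cells stably co-expressing constitutively active GLP-1R and a cAMP-responsive luciferase reporter were seeded in DMEM with 10% Nu serum, given compounds after 12 h, and incubated 24 h at 37 deg C. Luminescence was then read.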
# Potency means the concentration at half of the fitted maximal effect; tags describe the fitted curve by direction and shape.
row,SMILES,Potency
1,C=CCc1c(C)nc2cc(-c3ccccc3)[nH]n2c1=O,"inconclusive [inhibitor, partial curve, poor fit]"
2,CCN1CCCC1CNC(=O)C(=O)NC(C)c1ccccc1 (stereo not drawn),"inconclusive [inhibitor, partial curve, poor fit]"
3,CC(NC(c1ccccc1)c1ccccc1)C(=O)N1CCCc2ccccc21 (stereo not drawn),"inconclusive [inhibitor, partial curve, poor fit]"
4,O=C(NNc1ccccc1F)c1ccccc1,"inconclusive [inhibitor, full curve, poor fit]"
5,CCOc1ccc(S(=O)(=O)N(CC(=O)N2CCc3ccccc32)Cc2ccco2)cc1,active: 8.91 µM
6,CCN(CC)c1ccc(/C=N/N2CCN(Cc3ccccc3Cl)CC2)c(O)c1,"inconclusive [inhibitor, full curve, poor fit]"
7,COc1ccc(N(CC(=O)N/N=C/c2ccc(OC3CSC3)cc2)S(=O)(=O)c2ccccc2)cc1,"inconclusive [inhibitor, single point]"
8,COc1cccc(N2CC(NC(=O)c3ccc4c(c3)OCO4)CC2=O)c1 (stereo not drawn),inactive
9,COc1ccccc1NC(=S)NCc1ccc(F)cc1,"inconclusive [inhibitor, single point]"
10,COC(=O)C1=C(C)N(c2cc(Cl)cc(Cl)c2)C(=O)C1,"inconclusive [inhibitor, single point]"
11,Cc1cccc(C(=O)Nc2ccc(C(=O)N/N=C/c3ccc4c(c3)OCO4)cc2)c1,"inconclusive [inhibitor, full curve, poor fit]"
12,COc1ccc(CNC(=S)Nc2cccc(C)c2)cc1,"inconclusive [inhibitor, single point]"
13,Cc1c(C(=O)NCc2ccc(F)cc2)c(-c2ccccc2)nn1-c1ccccc1,active: 5.01 µM
14,CCOC(=O)C1=C(c2ccc(OC)cc2)OC(N)=C(C#N)C1c1cccnc1 (stereo not drawn),inactive
15,Cc1cc2ncn(/N=C/c3ccc4c(c3)OCO4)c2cc1C,"inconclusive [inhibitor, single point]"
16,C=CCNc1cc(C(F)(F)F)nc(-c2ccccn2)n1,inactive
17,O=C(N/N=C/c1c[nH]c2ccc(Br)cc12)c1ccccn1,"inconclusive [inhibitor, single point]"
18,COc1cccc(C(=O)NNC2=C(C(=O)C(F)(F)F)CCC2)c1,"inconclusive [inhibitor, full curve, poor fit]"
19,Cc1nc2nc(SCc3ccc(F)cc3Cl)nn2c(C)c1Cc1ccccc1,"inconclusive [inhibitor, single point]"
20,O=C(c1ccccc1)C(c1ccccc1)c1ccccc1,"inconclusive [inhibitor, partial curve, poor fit]"
21,CCCCOc1ccc(C(=O)CCN2CCCCC2)cc1,inactive

row,SMILES,Potency
1,O=C(N/N=C/c1ccccc1OC(F)F)NC1CCCCC1,"inconclusive [inhibitor, partial curve, poor fit]"
2,Cc1cccc(-c2cc(NC(=O)C(C)(C)C)n(-c3ccccc3)n2)c1,"inconclusive [inhibitor, single point]"
3,O=C(Nc1nc2ccccc2n1CCOc1ccc(Cl)cc1)c1ccco1,"inconclusive [inhibitor, partial curve, poor fit]"
4,N/C(Cc1ccc(Cl)c(Cl)c1)=N\OC(=O)c1cccs1,inactive
5,O=C(NCc1ccccc1Cl)C1CCCN(c2ncnc3onc(-c4ccc(F)cc4)c23)C1 (stereo not drawn),inactive
6,CCn1ncc(Br)c1C(=O)Nc1ccc(C(C)C)cc1,active: 8.91 µM
7,O=C(NCc1cc(C(F)(F)F)cc(C(F)(F)F)c1)C1CC(c2ccccc2F)=NO1 (stereo not drawn),"inconclusive [inhibitor, single point]"
8,OCC[C@H]1NCc2cc(CO)cc(-c3ccccc3)c21,"inconclusive [inhibitor, single point]"
9,CCOc1ccccc1N1CCN(CC(O)COC2CCCc3ccccc32)CC1 (stereo not drawn),"inconclusive [inhibitor, partial curve, poor fit]"
10,Cn1c(=O)c2c(ncn2CC(COCc2ccc(Cl)cc2)OCc2ccc(Cl)cc2)n(C)c1=O (stereo not drawn),"inconclusive [inhibitor, single point]"
11,COc1ccccc1N(C)S(=O)(=O)c1ccc(C(=O)N2CCCc3ccccc32)cc1,"inconclusive [inhibitor, partial curve, poor fit]"
12,O=S(=O)(c1cc(Cl)c(Cl)cc1Cl)N1CCN2CCCC2C1 (stereo not drawn),"inconclusive [inhibitor, single point]"
13,CN(C)c1cccc(C(=O)N(Cc2ccccc2)Cc2ccccc2)c1,"inconclusive [inhibitor, partial curve, poor fit]"
14,COC(=O)c1ccc(Oc2nc(N3CCCCC3)nc(N3CCOCC3)n2)cc1,"inconclusive [inhibitor, single point]"
15,Cc1cc(C)cc(Nc2sc(C(=O)c3ccccc3)c(N)c2S(=O)(=O)c2ccccc2)c1,"inconclusive [inhibitor, partial curve, poor fit]"
16,COc1ccc(OC)c(CNC(=O)c2coc(=O)c3ccccc23)c1,"inconclusive [inhibitor, single point]"
17,CC1Sc2ccc(S(=O)(=O)N(C)Cc3ccccc3)cc2NC1=O (stereo not drawn),"inconclusive [inhibitor, partial curve, poor fit]"
18,O=[N+]([O-])c1ccc(OCC(O)CN2CCN(c3ccccc3F)CC2)cc1 (stereo not drawn),"inconclusive [inhibitor, partial curve, poor fit]"
19,COC(=O)c1sc(C(F)(F)F)c(-c2ccccc2)c1S(=O)(=O)NC(C)(C)C,"inconclusive [inhibitor, partial curve, poor fit]"
20,C=CC(C)(C)c1c2occc2c(O)c2ccc(=O)oc12,inactive
21,COc1ccc(C(CNc2ccc(C(F)(F)F)cn2)N(C)C)cc1OC (stereo not drawn),"inconclusive [inhibitor, single point]"

row,SMILES,Potency
1,Cc1ccccc1C(=O)OC1OC(=O)C(Cl)=C1Nc1ccccc1 (stereo not drawn),"inconclusive [inhibitor, single point]"
2,CC(C)[C@H](NC(=O)c1ccco1)C(=O)N(C)Cc1ccc(C(F)(F)F)cc1,"inconclusive [inhibitor, single point]"
3,CCN(CC)c1ccc(/C=C/c2cc(-c3ccccc3)c3ccccc3n2)cc1,"inconclusive [inhibitor, partial curve, poor fit]"
4,CC(=O)N(Cc1ccccc1)c1nc(-c2ccccc2)cs1,"inconclusive [inhibitor, partial curve, poor fit]"
5,Cc1nnc(SCC(=O)Nc2sc3c(c2C(N)=O)CCCC3)[nH]c1=O,"inconclusive [inhibitor, partial curve, poor fit]"
6,COc1ccc(C(CNC(=O)COc2cccc(C(F)(F)F)c2)N2CCCC2)cc1 (stereo not drawn),"inconclusive [inhibitor, single point]"
7,COCCCN1C2=C(C(=O)CC(C)(C)C2)C(c2ccc(OC)c(OC)c2)C2=C1CC(C)(C)CC2=O,inactive
8,C[C@@H]1CN([C@H](C)CO)C(=O)c2cc(NC(=O)Cc3ccccc3)ccc2O[C@H]1CN(C)Cc1ccc(Oc2ccccc2)cc1,"inconclusive [inhibitor, single point]"
9,O=C(Cc1ccc(Cl)cc1)NCCS(=O)c1ccc(Cl)cc1 (stereo not drawn),"inconclusive [inhibitor, partial curve, poor fit]"
10,CC(C)CCNC(=O)[C@@H](c1ccccc1)N1Cc2ccccc2C1=O,"inconclusive [inhibitor, single point]"
11,Cc1cc(C)cc(OCC(=O)NCC2(N(C)C)CCCCC2)c1,"inconclusive [inhibitor, single point]"
12,COc1ccc(NC(=O)c2sc(=O)n(Cc3ccccc3C#N)c2C)cc1OC,"inconclusive [inhibitor, full curve]"
13,COC(=O)C(C)Oc1cc(OC(C)C(=O)OC)c2c(-c3ccccc3)cc(=O)oc2c1 (stereo not drawn),inactive
14,Cc1ccc(C)c(N2CCN(c3cc(C)nc4c(-c5ccc(Cl)cc5)c(C)nn34)CC2)c1,inactive
15,Cc1onc(-c2c(F)cccc2Cl)c1C(=O)Nc1cc(S(=O)(=O)N2CCCCC2)ccc1O,"inconclusive [inhibitor, partial curve, poor fit]"
16,CCc1ccccc1NCC(=O)Nc1ccc(Cl)c(C(F)(F)F)c1,"inconclusive [inhibitor, partial curve, poor fit]"
17,c1ccc2nc(NN=C3CCCCC3)ccc2c1,"inconclusive [inhibitor, single point]"
18,CC(C(=O)Nc1ccccc1-c1ccccc1)N1CCN(Cc2ccccc2)CC1 (stereo not drawn),"inconclusive [inhibitor, single point]"
19,COc1cccc(-n2c(SCc3ccccc3C)nc3c([nH]c4ccccc43)c2=O)c1,"inconclusive [inhibitor, partial curve, poor fit]"
20,CCC(C)C(NC(=O)c1ccc(Cl)cc1)C(=O)Nc1cccnc1 (stereo not drawn),"inconclusive [inhibitor, full curve, poor fit]"
21,CCN(CC)C(=O)[C@H]1CC(CC(=O)NC/C=C(\C)CCC=C(C)C)C(=O)N2CCc3c([nH]c4ccc(OC)cc34)[C@]12C (stereo partly drawn),"inconclusive [inhibitor, partial curve, poor fit]"
